Hit rate of the full screen: of about 420,000 compounds, about 50,000 (12%) were called active. This list was built around the results that the source calls inconclusive (neither active nor inactive); the mix of calls is not that of the screen. The call rests on the fitted dose curve; in most records, active means well fitted inhibition curve with a large enough effect; inconclusive means small, poorly fitted or top-dose-only effect; inactive means flat fitted curve, though single readings scatter. No potency is given beside an inconclusive call; the fits are too rough.
Assay: qHTS for Inhibitors of human tyrosyl-DNA phosphodiesterase 1 (TDP1): qHTS in cells in presence of CPT; further: nearly all actives have a fitted effect of over 55% in size
Settings: chicken DT40 Tdp1-/-;hTDP1 cells + 20 nM CPT, ATP luminescence, 48 h; activity change, negative = growth inhibition: at 46.2 µM (top of the series) unless noted
Outline: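 Cell growth measured by CellTiter-Glo luminescence after a minimum 48 h, 37 C compound exposure with 20 nM CPT in Tdp1-knockout DT40 cells stably expressing hTDP1, seeded 400/well; qHTS titration format.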
On the % scale 0 is the no-effect control and ±100 the full control effect; potency means the concentration at half of the fitted maximal effect; tags describe the fitted curve by direction and shape.

| Compound | activity change, negative = growth inhibition | Potency |
| --- | --- | --- |
| COc1cc(CN2CCCCCC2)cc([N+](=O)[O-])c1O | inactive: -1.41% |  |
| CCOC(=O)C1Oc2ccccc2C(c2cccc3ccccc23)=C1C(=O)OC (stereo unspecified) |  | inconclusive [inhibitor, single point] |
| Cc1ccc(C2(C)NC(=O)N(CC(=O)Nc3ccccc3C(=O)NC3CCCC3)C2=O)cc1 (stereo unspecified) | inactive: 1.34% |  |
| Cc1ccccc1-c1nc(CS(=O)(=O)CC(=O)N2CCN(C)CC2)c(C)o1 | inactive: -4.99% |  |
| CC1=CC2=NC(=O)CC(C)(C(=O)N(CC(=O)NC(C)(C)C)Cc3cccs3)N2C=C1 (stereo unspecified) | inactive: -5.11% |  |
| CCOCc1nnc(NC(=O)COC)s1 |  | inconclusive [inhibitor, full curve] |
| CCCc1cnc2c(c1SCc1cccc(F)c1)c(=O)n(C)c(=O)n2C |  | inconclusive [inhibitor, single point] |
| O=c1c2ccccc2nc2c3ccccc3c(NCc3cccnc3)nn12 | inactive: 6.08% |  |
| O=C(Nc1ccc(Sc2ccc(Br)cc2)cc1)c1ccco1 |  | inconclusive [inhibitor, single point] |
| O=C(CCl)N(c1ccccc1)C1CCS(=O)(=O)C1 (stereo unspecified) |  | active: 8.2 µM |
| CCOC1=C2[C@@H](CN(S(=O)(=O)c3ccccc3C)[C@H]2c2ccc(Cl)cc2)[C@H]2C(=O)N(C3CCCCC3)C(=O)[C@H]2C1 |  | active: 20.6 µM |
| COC(=O)c1sc(-c2ccc(C(C)(C)C)cc2)cc1NC(=O)c1ccccc1C(=O)O |  | inconclusive [inhibitor, single point] |
| CN(C(=O)COC(=O)c1nc(Cl)ccc1Cl)C1CCS(=O)(=O)C1 (stereo unspecified) | inactive: 4.88% |  |
| NS(=O)(=O)c1cccc(NS(=O)(=O)c2ccc3ccccc3c2)c1 | inactive: -7.29% |  |
| COc1ccc(CNC(=O)CN(C(=O)CCC(=O)Nc2nccs2)c2cccc(C)c2)cc1 |  | inconclusive [inhibitor, single point] |
| O=S(=O)(Nc1cccc(-c2cn3ccsc3n2)c1)c1ccc(F)cc1 |  | inconclusive [inhibitor, single point] |
| Cc1noc(C)c1-c1nccc(NCc2ccccc2)n1 |  | inconclusive [inhibitor, single point] |
| COc1ccc(OC)c(C(=O)COC(=O)c2c(OC)cccc2OC)c1 |  | inconclusive [inhibitor, partial curve] |
| O=C(NCC(=O)N1CCN(S(=O)(=O)c2ccccc2)CC1)c1ccc(Br)o1 | inactive: -8.53% |  |
| CC(=O)N(Cc1cccc(Br)c1)c1ccc(N2CCOCC2)c(Cl)c1 |  | inconclusive [inhibitor, single point] |
| COc1ccccc1CN(C)C(=O)C(c1ccccc1)c1ccccc1 |  | active: 16.4 µM |
| COC(=O)C1(Cc2cc(-c3ccc([N+](=O)[O-])cc3)no2)CCN(C(=O)OC(C)(C)C)CC1 |  | inconclusive [inhibitor, single point] |
| C[C@H]1CN([C@@H](C)CO)C(=O)CCCn2nncc2CO[C@H]1CN(C)C(=O)c1ccccc1 | inactive: -7.64% |  |
| Cc1ccc(NC(=O)CN2C(=O)COc3ccc(S(=O)(=O)NC4CCCC4)cc32)c(Cl)c1 | inactive: -26% |  |

| Compound | activity change, negative = growth inhibition | Potency |
| --- | --- | --- |
| COc1ccc(NC(=O)c2ccc(OC(=S)N(C)c3ccc(OC)cc3)cc2)cc1 |  | inconclusive [inhibitor, partial curve] |
| CN(C)CCCNC(=O)c1cc(C(=O)c2ccccc2F)c[nH]1 | inactive: -11.9% |  |
| CC(=O)c1cccc(NC(=O)CCc2nnc3ccc(NCc4ccco4)nn23)c1 |  | inconclusive [inhibitor, single point] |
| COc1ccc(/C=N/N=C/c2ccc(OC)c(OC)c2)cc1OC | inactive: -12.6% |  |
| CC1CCCC(C)N1C(=O)c1cc(-c2cccs2)on1 (stereo unspecified) | inactive: -0.216% |  |
| Cc1ccc(C)c(N2CCN(C(=O)c3cc(S(=O)(=O)N4CCOCC4)ccc3F)CC2)c1 |  | active: 14.6 µM |
| CCc1ccc(Nc2nnc(-n3nc(C)cc3C)c3ccccc23)cc1 |  | inconclusive [inhibitor, single point] |
| CC(C)CNC(=O)/C(C#N)=C1\N=C(NC(=O)c2ccco2)c2ccccc21 |  | inconclusive [inhibitor, single point] |
| Cc1ccc(S(=O)(=O)N2CCN(Cc3cc(C(C)(C)C)ccc3O)CC2)cc1 | inactive: -26% |  |
| CS(=O)(=O)c1ccc(NC(=O)c2cccc(S(=O)(=O)N3CCN(Cc4ccccc4)CC3)c2)cc1 |  | inconclusive [inhibitor, single point] |
| O=C(CSc1ccc(-c2ccccn2)nn1)Nc1cccc(F)c1 |  | inconclusive [inhibitor, single point] |
| Cc1cc(C(=O)NCCC2=CCCCC2)c(C)o1 |  | inconclusive [inhibitor, single point] |
| CCOc1cc(C(=S)N2CCN(C)CC2)ccc1OCC(=O)N1CCCC1 | inactive: 11.6% |  |
| CC(C)c1c(O)ccc2c1CC[C@H]1C(C)(C)CCC[C@]21C |  | active: 13 µM |
| Cc1cccc(CSC2=NN3CCCC(=O)N=C3S2)c1 |  | inconclusive [inhibitor, partial curve, poor fit] |
| COC(=O)[C@@]12C[C@@H](CC(=O)N3CCCCC3)C(=O)N(Cc3ccccc3)C1=CCC(C)(C)C2 |  | inconclusive [inhibitor, single point] |
| CCOC(=O)c1nc(NCc2ccccc2C)c2ccccc2n1 |  | inconclusive [inhibitor, single point] |
| c1cc(-c2cc3nc(NCC4CC4)ccn3n2)ccc1OCCN1CCOCC1 |  | active: 23.1 µM |
| CCOc1ccc(S(=O)(=O)N(C)c2ccc(OCC(=O)NCc3ccco3)cc2)cc1 | inconclusive: -32.3% [inhibitor] |  |
| CCOc1ccc(NC(=O)CN(C)C(=O)c2cc([N+](=O)[O-])ccc2N2CCCCC2)cc1OCC |  | inconclusive [inhibitor, single point] |
| Nc1nc(CCl)nc(Nc2ccc3ccccc3c2)n1 |  | active: 11.6 µM |
| COc1ccc(N2CCN(C(=O)CNC(=O)c3ccc(C(C)(C)C)cc3)CC2)cc1 |  | inconclusive [inhibitor, partial curve] |
| COc1ccc(CNC(=O)Cc2csc3nc(-c4ccc(F)cc4)cn23)cc1 |  | active: 20.6 µM |
| O=C1NC2(CCCc3ccccc32)C(=O)N1Cc1nnc(-c2ccccc2Br)o1 (stereo unspecified) |  | inconclusive [inhibitor, partial curve] |

| Compound | activity change, negative = growth inhibition | Potency |
| --- | --- | --- |
| C=CCn1c(SCC(=O)c2[nH]c(C)c(C(=O)OCC)c2C)nc2scc(-c3ccc(OC)cc3)c2c1=O |  | active: 9.2 µM |
| Cc1ccccc1NS(=O)(=O)c1ccc(C(=O)NCC2(N3CCOCC3)CCCCC2)cc1 |  | inconclusive [inhibitor, single point] |
| CCC(CC)N=C1NS(=O)(=O)c2cc([N+](=O)[O-])ccc21 |  | inconclusive [inhibitor, single point] |
| CCCCn1c(/N=C/c2c[nH]c3ccccc23)nc2ccccc21 |  | inconclusive [inhibitor, single point] |
| Cc1ccc(C)c(NC(=O)CSc2nc3c(c(=O)n2C)SC(C)C3)c1 (stereo unspecified) |  | inconclusive [inhibitor, single point] |
| Cc1ccoc1C(=O)Nc1cccc2ccccc12 |  | active: 9.2 µM |
| Cc1ccccc1-n1c(SCC(=O)NC2CC2)nc2ccccc2c1=O |  | inconclusive [inhibitor, partial curve, poor fit] |
| CCCCOCCCNC(=O)CCCOc1ccccc1 | inconclusive: -14.6% [inhibitor] |  |
| COc1cccc(NC(=O)CCc2c(C)nc3ncnn3c2C)c1 | inactive: 13% |  |
| CC(C)n1c(CN2CCN(C(=O)c3ccco3)CC2)nc2c1c(=O)n(C)c(=O)n2C |  | inconclusive [inhibitor, partial curve] |
| COc1ccc(NC(=O)C2(C)CCN2CC2CCCCC2)cc1OC (stereo unspecified) |  | inconclusive [inhibitor, single point] |
| CCCn1c(=O)c2c(nc3n2CCCN3CCc2ccc(OC)c(OC)c2)n(C)c1=O |  | inconclusive [inhibitor, single point] |
| CC(C)Cc1cc(C(=O)N2N=C(C(F)F)CC2(O)C(F)F)c2ccccc2n1 (stereo unspecified) |  | inconclusive [inhibitor, single point] |
| COc1ccc(N(Cc2cccs2)C(=O)Nc2cccc(Cl)c2)cc1 |  | inconclusive [inhibitor, partial curve, poor fit] |
| CCCNC(=O)C1(C)CCN(Cc2cc(C(F)(F)F)ccc2Cl)C1 (stereo unspecified) |  | active: 23.1 µM |
| CCOc1ccc2nc(NC(=O)CSc3nnc(-c4ccncc4)n3CC3CCCO3)sc2c1 (stereo unspecified) |  | inconclusive [inhibitor, partial curve] |
| Cc1ccc(-n2c(SCC(=O)N3c4ccccc4Sc4ccccc43)nnc2-c2ccncc2)cc1 |  | inconclusive [inhibitor, single point] |
| CNc1cnc(-c2ccccc2OC)cn1 | inactive: -4.99% |  |
| CN(C)S(=O)(=O)c1ccc(Cl)c(NC(=O)COC(=O)CC(NC(N)=O)c2ccc(Cl)cc2)c1 (stereo unspecified) | inactive: -19.7% |  |
| Cc1c(C(=O)N2CCOCC2)sc(NC(=O)c2ccc3c(c2)OCO3)c1C#N | inactive: -15% |  |
| CCOc1ccc(NC(=O)C(=O)NCC(c2cccnc2)N2CCc3ccccc32)cc1 (stereo unspecified) |  | active: 4.11 µM |
| COc1ccc(-c2nc(SCC(=O)NC3CCCC3)c(-c3ccc(C)cc3)[nH]2)cc1OC |  | inconclusive [inhibitor, single point] |
| O=C(Nc1cccc(Cl)c1)Nc1nnc(CC2=CCCCC2)s1 |  | active: 4.61 µM |
